PubChem BioAssay AID686970 (National Center for Advancing Translational Sciences (NCATS), 2013)
About 6,000 (1.7%) of roughly 360,000 compounds were called active. This list was built around the results that the source calls inconclusive (neither active nor inactive); the mix of calls is not that of the screen. Calls follow the shape of the dose curve; as a rule, active = well fitted cell-killing curve with a large enough effect; inconclusive = small, poorly fitted or top-dose-only effect, or effect the other way; inactive = flat fitted curve, though single readings scatter. Potencies of inconclusive entries are left out as doubtful fits.

Experiment: qHTS for induction of synthetic lethality in tumor cells producing 2HG: qHTS for the HT-1080-NT fibrosarcoma cell line;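 also: NT is the 2HG producing partner of a matched IDH1 knockdown line; nearly all actives have a fitted effect of over 55% in size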;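 as to activity, negative = less viability: 0% = DMSO-treated cells and -100% = media-only wells without cells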
Conditions: HT-1080-NT fibrosarcoma viability, CellTiter-Glo ATP luminescence, 48 h; activity, negative = less viability: at 46.1 µM (top of the series) unless noted
Method in brief: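 Compounds were tested in concentration-response format on HT-1080-NT cells for 48 hours at 37 degrees C. Cell viability came from CellTiter-Glo luminescence; curves were classified by r2, response magnitude and activity.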
Potency is read from the fitted curve at half-maximal effect; tags tell the direction and shape of the fitted curve.

Structure (SMILES) | Potency | activity, negative = less viability
CCOC(=O)[C@]12CCC=C1N(Cc1ccc(Cl)cc1Cl)C(=O)[C@H](CC(=O)N1CCOCC1)C2 | inactive | –
COc1ccc(NC(=O)CSc2ccccc2)c([N+](=O)[O-])c1 | inconclusive [rising, single point] | –
COc1ccc(-n2nc3c(c2NC(=O)c2ccc4c(c2)OCO4)CS(=O)(=O)C3)cc1 | inactive | –
C=CCOCCN(CC)CC | inactive | –
CN1CCN(C(=O)N2c3ccccc3C=Cc3ccccc32)CC1 | inactive | –
Cc1cc(C)n(-c2ccc(-n3ccnc3)nn2)n1 | inactive | –
Cc1ccc(Cl)cc1NC(=O)c1cc2ccccc2cc1O | active: 4.11 µM | –
C=C[C@@H]1c2cccc(C)c2N(S(=O)(=O)c2ccc(C)cc2)[C@H](c2ccc(OC(C)=O)cc2)C1(C#N)C#N | inconclusive [cytotoxic, single point] | –
OCCNC(=S)Nc1ccc(Cl)c(Cl)c1 | inactive | –
COc1ccc(CCN2CN(S(=O)(=O)c3ccccc3)c3nc4ccccc4nc32)cc1OC | inactive | –
COCCSc1nc(N)c(NC(=O)c2ccco2)c(=O)[nH]1 | inactive | –
CC(=O)Nc1ccc(S(=O)(=O)n2cnc3cc(C)c(C)cc32)cc1 | inconclusive [cytotoxic, partial curve, poor fit] | –
O=C(Cn1c2ccc(F)cc2c2nc3n(c(=O)c21)CCS3)Nc1ccc(Cl)cc1F | inconclusive [cytotoxic, single point] | –
CCOc1c(Br)cc(CNc2ccc3c(c2)OCCO3)cc1OC | active: 2.91 µM | –
c1ccc(-n2cc(CNCCc3cscn3)c(-c3ccc4c(c3)OCO4)n2)cc1 | inconclusive [cytotoxic, partial curve] | –
CN(c1ccc(C(=O)Nc2ccc(Cl)cn2)cc1)S(=O)(=O)c1ccccc1 | inconclusive [cytotoxic, single point] | –
c1ccc(C2=Nn3c(nnc3-c3cc(-c4ccccc4)n[nH]3)SC2)cc1 | inconclusive [cytotoxic, single point] | –
CCOC(=O)C1CCCN(C(=O)c2cc3ccccc3oc2=O)C1 (centres undefined) | inactive | –
O=[N+]([O-])c1cc(-c2nnc(C34CC5CC(CC(C5)C3)C4)o2)cc([N+](=O)[O-])c1 | inactive | –
NNC(=O)c1ccc(OCC2CC(c3ccc(Cl)cc3)=NO2)cc1 (centres undefined) | inconclusive [cytotoxic, single point] | –
CN1CCN(CCOc2cccc(Cl)c2)CC1 | inactive | –
O=C(/C=C/c1ccc2c(c1)OCCO2)N1CCN(c2ccc(F)cc2)CC1 | inactive | –
O=C(CC12CC3CC(CC(C3)C1)C2)N/N=C/c1ccc([N+](=O)[O-])o1 | inconclusive [cytotoxic, single point] | –
O=C(CCCN1C(=O)/C(=C/c2cccs2)SC1=S)Nc1cccc(C(=O)O)c1 | inactive | –
O=C(NC(=S)Nc1ccc(CN2CCOCC2)cc1)c1ccc2c(c1)OCCO2 | inconclusive [cytotoxic, partial curve] | –

Structure (SMILES) | Potency | activity, negative = less viability
Cn1c(=O)c([N+](=O)[O-])c(Oc2ccccc2)c2ccccc21 | active: 18.4 µM | –
COc1cc(C(=O)NNC(=O)Nc2ccc([N+](=O)[O-])cc2)cc(OC)c1OC | inconclusive [cytotoxic, partial curve] | –
O=C(CCOc1ccccc1)N1CCN(c2ccc(O)cc2)CC1 | active: 1.46 µM | –
[O-][n+]1c2c(nn1-c1ccc(Cl)c(Cl)c1)-c1nonc1CC2 | inconclusive [rising, partial curve, poor fit] | –
COC1=C(OC)C(=O)C(Sc2ccc3ccccc3c2)=CC1=O | inconclusive [cytotoxic, single point] | –
Cc1cccc(-n2ncc3c(NCc4ccco4)ncnc32)c1 | inconclusive [cytotoxic, partial curve] | –
Nc1nc(N)c(N=O)c(OCC2CCCCC2)n1 | inconclusive [cytotoxic, partial curve] | –
CC(=O)N(C)c1ccc(NC(=O)C(Sc2ccccc2)c2ccccc2)cc1 (centres undefined) | inconclusive [cytotoxic, single point] | –
CC1=CC(=O)C(C(C)C)=C/C1=N/OS(=O)(=O)c1ccccc1 | active: 8.2 µM | –
CC(CCc1ccccc1)NC(=O)C(=O)c1c[nH]c2ccccc12 (centres undefined) | inconclusive [cytotoxic, single point] | –
COc1ccc(N2C(=O)CC(NCCNc3ccc([N+](=O)[O-])cn3)C2=O)cc1 (centres undefined) | inactive | –
CCC(C)Sc1cc(-c2nc3cc(C)ccn3c2NC2CCCCC2)ccc1OC (centres undefined) | active: 20.6 µM | –
O=C(N1CCN(c2ncccn2)CC1)C12CC3CC(CC(C3)C1)C2 | inconclusive [rising, single point] | –
CCN1CCN(c2sc(S(=O)(=O)CC)nc2S(=O)(=O)c2ccc(C)cc2)CC1 | inactive | –
Cc1cccn2cc(-c3ccc(S(=O)(=O)N4CCOCC4)cc3)nc12 | inconclusive [cytotoxic, single point] | –
Cn1c(=NC(=O)CCl)sc2ccccc21 | active: 5.8 µM | –
CC(C)(C)n1nnnc1C1c2ccccc2C(=O)N1CCc1c[nH]c2ccccc12 (centres undefined) | inactive | –
Cc1c(C)n(Cc2ccc(Cl)cc2)c2ccc(C(=O)NCCCN3CCOCC3)cc12 | inconclusive [cytotoxic, single point] | –
COCCOC(=O)c1[nH]c2c(c1C)C(=O)CC(c1ccc(F)cc1)C2 (centres undefined) | inconclusive [cytotoxic, single point] | –
Cc1ccc(O)c(N/C=C/C(=O)c2ccc(F)cc2)c1 | inconclusive [cytotoxic, single point] | –
Cc1nc(C)c(C(=O)N/N=C/c2cc(Br)ccc2O)s1 | inconclusive [cytotoxic, full curve] | –
Cc1ccc(/C=N/NC(=O)CCCOc2ccc(Cl)cc2Cl)cc1 | active: 14.6 µM | –
CC(C)c1ccc(/C=N/NC(=O)c2ccccn2)cc1 | inconclusive [cytotoxic, single point] | –
COc1ccccc1CNC(=O)C1(C)CCN1C(=O)Cc1ccc(-c2ccccc2)cc1 (centres undefined) | inconclusive [cytotoxic, single point] | –
C#CCOCCOCCOCCNc1nc(N2CCN(C(=O)[C@H](C(C)C)n3cc(CCO)nn3)CC2)nc(N2CCN(C(=O)[C@H]([C@@H](C)CC)n3cc(CCCCN)nn3)CC2)n1 | inactive | –

Structure (SMILES) | Potency | activity, negative = less viability
CCOc1ccc(C(=O)OCC(=O)N2CCOCC2)cc1OCC | inactive | –
CCOC(=O)/C=C1\SCC(=O)N1CC(=O)Nc1cccc(F)c1 | inactive | –
Cc1ccc(C2CC(=O)NC(SCC(=O)OCc3ccccc3)=C2C#N)o1 (centres undefined) | inconclusive [cytotoxic, single point] | –
CN1CCN(c2ccc(CNC(=O)C3Cc4c(-c5ccc(Cl)cc5)ccnc4O3)cc2)CC1 (centres undefined) | inconclusive [cytotoxic, single point] | –
CCOC(=O)c1c(-c2ccccc2)oc2ccc(O)c(CN3CCN(C)CC3)c12 | inconclusive [cytotoxic, single point] | –
COc1ccc(C2C(C(C)=O)=C(C)Nc3ncnn32)cc1[N+](=O)[O-] (centres undefined) | inconclusive [rising, partial curve] | –
O=C(NC1CC1)c1ccc2c(c1)N(Cc1ccccc1)CCS2 | inactive | –
Cc1ccc(S(=O)(=O)N2CCCCC2)c(C)c1NS(C)(=O)=O | inconclusive [rising, partial curve] | –
O=C(Nc1cccc(-c2nc3ccccc3s2)c1)c1cc(-n2cnnc2)ccc1Cl | inconclusive [cytotoxic, partial curve] | –
COc1cc(/C=N/NC(=O)c2ccc(COc3cc(C)ccc3C(C)C)cc2)cc(OC)c1O | active: 20.6 µM | –
COc1ccc2c(Cn3cnc4cc([N+](=O)[O-])ccc4c3=O)cc(=O)oc2c1 | active: 3.66 µM | –
Cc1onc(C(N)=O)c1C(=O)Nc1ncc(C(F)(F)F)cc1Cl | inconclusive [rising, partial curve] | –
Cc1cccc(N2CCN(S(=O)(=O)c3ccc(-c4ccc(=O)[nH]n4)o3)CC2)c1C | inconclusive [cytotoxic, partial curve] | –
OCC(O)C1OC(Nc2ccc(Cl)cc2)C(O)C1O (centres undefined) | inconclusive [cytotoxic, partial curve] | –
O=C(c1ccc(N2CCOCC2)cc1)N1CCCC(Nc2ccccc2)C1 (centres undefined) | inconclusive [rising, single point] | –
CCCS(=O)(=O)N1CCN(S(=O)(=O)c2ccc(F)cc2)CC1 | inactive | –
O=C(NCc1ccccn1)c1n[nH]c2ccccc12 | – | inconclusive: 33.9%
COc1ccc(/C=C/C(=O)Nc2ccc(C34CC5CC(CC(O)(C5)C3)C4)cc2)cc1OC | inconclusive [cytotoxic, full curve] | –
CN(CC(=O)Nc1ccc(C#N)cc1)Cc1ccc(Cl)cc1 | inconclusive [cytotoxic, single point] | –
COc1ccc(NC(=S)N(Cc2cccnc2)Cc2cc3cc(OC)c(OC)cc3[nH]c2=O)cc1 | inactive | –
CCC(=O)N1CCc2cc(S(=O)(=O)NCCC(=O)NC3CCCCCC3)ccc21 | inactive | –
COc1ccc(-n2nc3c(N4CCC(C(=O)NCc5ccccc5C)CC4)nnc(C)c3c2C)cc1 | active: 14.6 µM | –
CCNCC(=O)N1c2ccccc2CCc2ccc(NC(=O)OCC)cc21 | inactive | –
CCN(CC)c1ccc(N=Cc2ccc(N(CC)CC)cc2O)cc1 | inactive | –
